Experimental data reported in PubChem BioAssay AID686979 (National Center for Advancing Translational Sciences (NCATS), 2013).
The campaign covered roughly 420,000 compounds. About 50,000 (12%) were called active. The inconclusive results got no clear call from the source; some entries with a clear call stand among them for comparison. The call rests on the fitted dose curve; in most records, active means well fitted inhibition curve with a large enough effect; inconclusive means small, poorly fitted or top-dose-only effect; inactive means flat fitted curve, though single readings scatter. Potencies of inconclusive entries are left out as doubtful fits.

assay: qHTS for Inhibitors of human tyrosyl-DNA phosphodiesterase 1 (TDP1): qHTS in cells in presence of CPT; details: chicken DT40 Tdp1-/-;hTDP1 cells + 20 nM CPT, ATP luminescence, 48 h; series mostly up to 46.2 µM; further: nearly all actives have a fitted effect of over 55% in size
Procedure, shortened: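 Chicken DT40 Tdp1-/- cells complemented with human TDP1, 400 cells/well, exposed to compounds plus 20 nM camptothecin for at least 48 h at 37 C; viability read as ATP content by CellTiter-Glo luminescence.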
Potency means the concentration at half of the fitted maximal effect; tags describe the fitted curve by direction and shape.

SMILES | Potency
Cc1cccc(-c2nc(=S)c3c(o2)CCCC3)c1 | inconclusive [inhibitor, single point]
Cc1cc(C)c(C)c(S(=O)(=O)N2CCNCC2)c1C | inactive
COC(=O)c1cc2c([nH]c1=O)CCCC2=O | inactive
Cc1onc(-c2ccccc2Cl)c1C(=O)Nc1ncn[nH]1 | inactive
COc1ccc(C(=O)N2CCC(C(=O)N3CCN(c4ccccc4)CC3)CC2)cc1 | inactive
Cc1ccc(S(=O)(=O)N2CCC(=O)N2)cc1 | inconclusive [inhibitor, single point]
Cc1cc(NC(=O)CSc2nc3c(c(=O)n2-c2ccccc2)SC(C)C3)no1 (stereo not given) | inconclusive [inhibitor, single point]
CCN1CCN(c2cc(C)c3cc(NC(=S)N4CCN(c5ccc(F)cc5)CC4)ccc3n2)CC1 | active: 20.6 µM
CC1=CC2=NC(=O)CC(C)(C(=O)N(CC(=O)NC3CCCC3)c3ccccc3F)N2C=C1 (stereo not given) | inactive
COc1cc(NC(=O)c2nn(-c3ccc(F)cc3)c(=O)n(C)c2=O)cc(OC)c1OC | active: 14.6 µM
O=C(CCCN1C(=O)/C(=C\c2cccs2)SC1=S)Nc1ccc(O)cc1 | active: 25.9 µM
O=C1CCC(C(=O)N2CCN(c3ccccc3Cl)CC2)CN1CC1CCCCC1 (stereo not given) | inconclusive [inhibitor, single point]
C/C(=N\NC(=S)NC(C)C)c1ccco1 | inconclusive [inhibitor, partial curve, poor fit]
O=C(COCc1cc(-c2cccs2)on1)NCc1cccc(Cl)c1 | inactive
CN1CCN(c2ncc3nc(-c4ccccc4)c(=O)n(CCC#N)c3n2)CC1 | inconclusive [inhibitor, single point]
CC(C)CN=c1cc(-c2ccccc2)oc2ccc(Cl)cc12 | inconclusive [inhibitor, single point]
COc1cc2c(cc1OC)/C(=C/C(=O)c1cccc([N+](=O)[O-])c1)NCC2 | inconclusive [inhibitor, partial curve]
COc1ccc(NC(=O)C2Cc3c(-c4ccccc4)ccnc3O2)cc1OC (stereo not given) | inconclusive [inhibitor, full curve, poor fit]
COc1ccc(-n2c(C)cc(C(=O)CSc3nn4c(=O)c(C(C)(C)C)nnc4s3)c2C)cc1 | inconclusive [inhibitor, single point]
CCn1c(=S)sc2c(=O)n(CC(=O)Nc3ccc(OC)c(Cl)c3)c(C)nc21 | inconclusive [inhibitor, single point]
